± gives the standard deviation of the averaged measurements. This is one part of the list.
system: PfAP2-LT AP2 domain (GST-tagged); assay: gcPBM binding intensity (ln(normalized median fluorescence intensity)); higher = stronger DNA binding
Summary of the method: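 For binding intensity, the highest Masliner-normalised natural-log median intensity across replicate spots of either probe orientation was taken. Protein bound to the array was stained with Alexa488 anti-GST antibody and scanned at 488 nm. The protein, GST-tagged P. falciparum DNA-binding domains from E. coli at about 25 μg on average, had been applied for 1 h to an Agilent 4 × 180k array of primer-extended double-stranded 36-bp intergenic genomic probes and negative controls.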

| Sequence | gcPBM binding intensity (ln) |
| --- | --- |
| ATAATTTATATTCAGAAACACACGAAAAAAAAAAAT [CACACA_site1296] | 8.84 ± 0.49 |
| AACTAAACAAAAGTTACACACATCATACGATATTAT [CACACA_site3180] | 8.98 ± 0.38 |
| ACCATATAATTTTTTTGTACATAATGATTTTTTTTT [XGTACX_site1104] | 8.8 ± 0.42 |
| TATATTATATACGTCTGTACACAAATGAGAGGTAAA [XGTACX_site5538] | 8.82 ± 0.39 |
| ATGTTAAGAATAATTAGTACTTACATATGTATAATA [XGTACX_site4419] | 8.71 ± 0.39 |
| TAAATATTTTATTGTACACACTTTTTATGAATGATG [CACACA_site5694] | 8.88 ± 0.43 |
| AATATTTAAAACAAATCACACATGTATCCATAAATG [CACACA_site5308] | 8.73 ± 0.35 |
| ATATCCCATATGTAATGTACTTACACTTTCTTAATT [XGTACX_site7020] | 8.97 ± 0.42 |
| ATAAAATATATATGCACACACATATATATTTCATAC [CACACA_site3547] | 9.37 ± 0.36 |
| ACATAAAATAAATATACACACATATGTATATATTAT [CACACA_site3041] | 9.09 ± 0.4 |
| ATATATATATATATGTGTACTTATAAATATATCTGT [XGTACX_site4337] | 9.55 ± 0.32 |
| AAAAGAATTTAGAAGGCATGCACTTAAACATGGATA [TGCATGCA_site699] | 9.1 ± 0.6 |
| AAAAAAATAATGTACACACACATATCTGTTTATATA [CACACA_site4270] | 9.27 ± 0.34 |
| ATATTTATATATATATGTACATATGTGTGTTTTTAT [XGTACX_site3956] | 9.22 ± 0.36 |
| ATATATAACTTTTCTTAACACACAAAAAACAAAAAT [CACACA_site8748] | 8.84 ± 0.36 |
| TCATAAACATTATGCACACAAAAATAAAAAAAAATA [CACACA_site1115] | 9.2 ± 0.5 |
| AGGGAATAATATTAATGTACATATATGAACTTGTTT [XGTACX_site6089] | 8.93 ± 0.43 |
| TCTTTTAAAAATTAAGTGCATGTCCTTATAACAAAA | 8.23 ± 0.41 |
| TATAAAAAGGAAAAATAAAAATAAAAATAAAAATTA [CACACA_negctrl_site1822] | 8.42 ± 0.57 |
| TTTTTATATTATTTAATGAGAAATAATTATAAACAA [CACACA_negctrl_site553] | 8 ± 0.44 |
| ATGTGATGTTATATATGTACTTATTTTTTAATAAGG [XGTACX_site1786] | 8.63 ± 0.37 |
| ACACTATCTTAGATTTGTACATATTTATATATGTAT [XGTACX_site8739] | 9.03 ± 0.42 |
| TCGGTATCTGTTCAAAGTACACATTTGTATACAAAA [XGTACX_site1890] | 8.64 ± 0.37 |

| Sequence | gcPBM binding intensity (ln) |
| --- | --- |
| TATATAACATATGGGACACACATGCAACTGTTATAT [CACACA_site3792] | 9.13 ± 0.34 |
| TATTTTTACAATGGTAGTACCATTTTGAATCTTTGT [XGTACX_site6092] | 8.75 ± 0.42 |
| CACCCGCACGTATTTGCACACATTGCCACGTAATTA [CACACA_site5786] | 9.51 ± 0.3 |
| TGCTTATCCATTTCTACACACAAAAAAAAAAAAAAA [CACACA_site37] | 8.65 ± 0.42 |
| TTATATTATAACAAACGTACGAATTTTATACAAATA [XGTACX_site7258] | 8.53 ± 0.43 |
| TATATATATTTATGTTGTACAAAATATTATTACGTA [XGTACX_site5384] | 8.57 ± 0.36 |
| AAATGGGTTTATTTAACACACAAAAGAAAAAATATA [CACACA_site1938] | 8.71 ± 0.51 |
| ATATATATATATATATGTACATATATACATATATGT [XGTACX_site1521] | 9.81 ± 0.33 |
| TTTTTTTTTTTTTGATGTACAATAATTAAAGAGTAA [XGTACX_site8403] | 8.18 ± 0.46 |
| AGTAGTCTGGAGAAGAGTACATAGTTTCTGGTAGCT [XGTACX_site2023] | 8.8 ± 0.35 |
| AATAACTATATATGTGTGCACAAAAATTTGACATAA | 9.3 ± 0.37 |
| AGTTTTTATTAAAACAAAATTTAATTATAACGTTGA [XGTACX_negctrl_site298] | 8.23 ± 0.59 |
| CGTAGCCCCACTAACACACACAAATATACTCAATCA [CACACA_site5587] | 9.41 ± 0.38 |
| TATATATATATATACACACATACATATATATATTTG [CACACA_site857] | 9.74 ± 0.25 |
| TTATATGTATGAACAAGTACATGCTATAATTATAAA [XGTACX_site1399] | 8.57 ± 0.46 |
| AACATATACACGAACACACACACATATATATATATA [CACACA_site502] | 10.3 ± 0.26 |
| AAAACAAATGAGTACACACACATAAAAATTGAAAAT [CACACA_site199] | 9.49 ± 0.39 |
| TAAAGAAAAAAATGTTGTACTTTATGAAACATATTT [XGTACX_site412] | 8.38 ± 0.45 |
| ATATTTACCATTGTATGTACATATATAAAATATATC [XGTACX_site3237] | 8.83 ± 0.44 |
| GTATATATATATATATGTACATATTTAGAGTTCTGT [XGTACX_site5357] | 9.38 ± 0.41 |
| GGTAGGTGGATATATACACACATATATTATAGATAT [CACACA_site7021] | 9.24 ± 0.51 |
| CACAGATATATACATACACACATATATACACATATA [CACACA_site6323] | 9.39 ± 0.32 |
| ATCGAGAAAAATAAAATAATACAATTTCTTTAAATA [XGTACX_negctrl_site162] | 8.4 ± 0.45 |

| Sequence | gcPBM binding intensity (ln) |
| --- | --- |
| ATTCCCTTAAGAAACTGTACAAAACTTTCTTCGATT [XGTACX_site775] | 8.6 ± 0.43 |
| TATACATAAATTATATGTACTGAAAATACATAATTA [XGTACX_site3626] | 8.54 ± 0.42 |
| GTGTGTGTATATATTTGTACATATATTTAAACATAT [XGTACX_site1074] | 9.44 ± 0.35 |
| CATTATAAGAAACACACACACATATATATATATATA [CACACA_site1051] | 10.2 ± 0.25 |
| AAAAAAAAAAATATATTATTTTACTTGTTTATTTTA [CACACA_negctrl_site1447] | 8.31 ± 0.56 |
| AAAAAGAAGAATATATGTACACAAAATTTATGAGTT [XGTACX_site8609] | 8.86 ± 0.54 |
| TAAACCAAACAATTATGTATAAGATGTATATATATA [GTGCAC_negctrl_site438] | 8.71 ± 0.45 |
| AAATTCTTAACCCAACGTACATATAATAAATTCTTA [XGTACX_site8538] | 8.57 ± 0.33 |
| TTTTTTTTTTCTTAGGTGCAAAAAATAAGTATATAT [GTGCAC_site9394] | 8.32 ± 0.38 |
| AAAAAAAAAAGAACCCGTACATAAATAATATATATA [XGTACX_site164] | 8.91 ± 0.45 |
| TTAATTACATGTTATTGTACGTATTTTCTATCTATC [XGTACX_site844] | 9.12 ± 0.42 |
| GAAACATAAAAATATATTGAAATAGTATCATGGGTA [CACACA_negctrl_site352] | 8.82 ± 0.48 |
| TATAGTTATATTAGAAGTACTTCATTTTAACATATT [XGTACX_site7101] | 8.62 ± 0.38 |
| AAAAAAAAAAAAGAAACACACACATTTGTATATAAT [CACACA_site8648] | 9.29 ± 0.45 |
| TAAAAAATAAAATAATGTACATATGAATTATATATT [XGTACX_site8398] | 8.69 ± 0.47 |
| TTTTTTTTGTATTAATGTACATATAACTTTTTTTTT [XGTACX_site7903] | 8.6 ± 0.51 |
| CATACAGACGAACACACACACATATAAATATAAATA [CACACA_site6443] | 9.7 ± 0.38 |
| AAATATTATATATATACACACACACCGGCATGCACA [CACACA_site7916] | 9.62 ± 0.28 |
| AACCACATGGTGTAATGTACATTACCTTAACAATAA [XGTACX_site3055] | 9.01 ± 0.52 |
| TATAATAAAATTGGTAGTACATTAATTTATGTATAG [XGTACX_site3059] | 8.55 ± 0.45 |
| TATTATTTTTTTTTTTGTACATATATGTATATATAT [XGTACX_site8471] | 8.85 ± 0.53 |
| AAAAAAATTCTTGGCGCACACACTTTAAAAATTAAA [CACACA_site597] | 8.93 ± 0.49 |
| AAGGATTACAAAAAAAGTACAAATGGATTTTTTCCC [XGTACX_site8905] | 8.6 ± 0.57 |

| Sequence | gcPBM binding intensity (ln) |
| --- | --- |
| CTTACAAATAAACAACGTACTTATTCGAATTATGCT [XGTACX_site2431] | 8.8 ± 0.36 |
| AAAATTTTTTAACACTGTACTTGTAATATTAAAACT [XGTACX_site8369] | 8.53 ± 0.42 |
| GTTTTAAAATTAAATATTATGGCATAATTCAAGAAA [GTGCAC_negctrl_site721] | 8.28 ± 0.4 |
| AAATGCGCCATGTGTACACATATATATATATATATA [CACACA_site4649] | 10.1 ± 0.18 |
| TACATATATAAAAATTGTACACTTCATAAGAAAAAA [XGTACX_site4347] | 8.65 ± 0.5 |
| TTAAATAAGTTCTTCACACATATATATATATATATA [CACACA_site4742] | 9.51 ± 0.24 |
| GGAACATATGAACTCACACACATTTTCACTTAAATA [CACACA_site3684] | 9.3 ± 0.52 |
| TTTATACAATTAGACACACACAAAAAGTATAAATAT [CACACA_site6637] | 9.25 ± 0.33 |
| ATATCACATTCCACGGTACACACTAATAGAAAAATC [CACACA_site9204] | 9.09 ± 0.46 |
| TAAAATGATAAATGAATGTGATCATTTTATAAAATA [CACACA_negctrl_site674] | 8.61 ± 0.42 |
| AATATTTATAAATTTACACACACACCGGTGAACATA [CACACA_site8579] | 9.45 ± 0.22 |
| ATATATCACATGAACATTAAAAAAAAAAAAGAGGGG [TGCATGCA_negctrl_site187] | 8.89 ± 0.26 |
| AAAATATATACAAGCAAACACACGTAATATATATTA [CACACA_site2152] | 9.12 ± 0.33 |
| AGGTAGTTCTGTATCACACACATATAAATATAAATA [CACACA_site7110] | 9.12 ± 0.57 |
| GCATAAAATATGATCGCACACTGTTTAAAATACTTA [CACACA_site828] | 8.89 ± 0.48 |
| ATATTACTAATTAATGGTACACGTTATAATAAACTA [XGTACX_site7051] | 8.63 ± 0.33 |
| ATACCTTCTTCATTCACACATATACGTAAAATGTTC [CACACA_site5657] | 9.02 ± 0.47 |
| TTTAAACTAGAACAAGTGCAGATATGTATAATAATA | 8.77 ± 0.42 |
| AAGAAAAGATATATATATAAATATATATATATATAT [TGCATGCA_negctrl_site353] | 9.57 ± 0.36 |
| ATTTATTTTTATCAAGCATGCATAAAAAATAAATTA [TGCATGCA_site440] | 8.25 ± 0.4 |
